Source: publication PMC12136788
The list shows a part of the results.

B1: 20138503_20139230_1996_3pUTR_ENSMUSG00000044066_ENSMUST00000050611|mouse|control|control (ssRNA)
RNA: GGGAGUUCUACAGUCCGACGAUCGGCUGGUCCUGGGUGGAGCACUGAGGUCAGCAACAUCUGUGACAUUAUACAACCAGCAGAUCAGCUCUUCCAGCCGACAGCAAAAUGUCUGCACACACUGCACUAGAGAAGCUUUCUCCUCAACAGAGGAUUGAGCAUCA
B2: chr3:142137402:142137403:-_ENSG00000114127_ENST00000264951|hu_hu|FALSE|FALSE (ssRNA)
RNA: GGGAGUUCUACAGUCCGACGAUCAUCAGAUACUACGUCAACCCCCAUCUUCGUCAUGUAAUAUGUUCUUUUAUAUUGUCUAAACUCAGUUUCAAAUAGGUCAUCAUCUUCAGUCUCAUCUUCUAAAUUAUCCUUAGAAGUUAUCAACAGAGGAUUGAGCAUCA
B3: chr14:53324496:53324497:-_ENSG00000073712_ENST00000341590|hu_hu|FALSE|FALSE (ssRNA)
RNA: GGGAGUUCUACAGUCCGACGAUCAUUGUAAUGCAAAGAGUUGCAUAUUUUAGGCAGACAGUGAUUAUGCUGGUGAAUACUAAAAGUGUAAUACAAUAUGGUGUAAAAAUAAAAACACGAGACAAUAUACAUAACAUGCUUAUUCAACAGAGGAUUGAGCAUCA
B4: chr3:51263940:51263941:+_ENSMUSG00000063273_ENSMUST00000029303|mus_hu|motif|central (ssRNA)
RNA: GGGAGUUCUACAGUCCGACGAUCGUAAAAUGGAUGCUGUCGAAGUACAUCUUCUAGUUUUAAUAAGUCCACAUAUGAUCGGAGGGUAAUCUUCCUCAUACAGUAUGUAUGAAAGUCAAACUGGUCAUCAGUGAUUUCUAUAAACAACAGAGGAUUGAGCAUCA
B5: chr7:141441981:141441982:+_ENSG00000106028_ENST00000265304|hu_mus|hu_hu_hu_mus_False|8_58 (ssRNA)
RNA: GGGAGUUCUACAGUCCGACGAUCCUCAUGUCUUACAAACUGACGAAAUACCUGUAACACAGGUCUUCGAAACAUGGCUUCUAUUUUUCUUACAACCUAAUCUUUAGGCUUUUCCUAAAGGAAAGAAUAACCCGAGCAAAAUGACAACAGAGGAUUGAGCAUCA
B6: chr2:126475859:126475860:-_ENSMUSG00000027361_ENSMUST00000110424|mus_mus|motif|central (ssRNA)
RNA: GGGAGUUCUACAGUCCGACGAUCAGUUUCUGAAGAAUUGGACAAUGGGGCAGAAGCUUCAGCUAAGGCAGCUAACGUAGCGGAUACUGACGUAGAGGAGUUUCCAAACUGAACAGCAGAUACUCCUGUUUCAUCUGUGAGGUUCAACAGAGGAUUGAGCAUCA
B7: chr1:60041781:60041782:+_ENSMUSG00000041040_ENSMUST00000036540|mus_hu|mus_mus_mus_hu_False|68_68 (ssRNA)
RNA: GGGAGUUCUACAGUCCGACGAUCAAGUUUACAAUAGUAAAGUAAAUGCAGUAGUGGCAAAUUUUCUUUACUUUAGUUUCACAAAAGAAAAUCUUUAUAACCCAGUCCUAGUCUUGGACAUAGUGAAAGCUAUAAAUUCUGACUCAACAGAGGAUUGAGCAUCA
B8: chr17:34036268:34036269:+_ENSG00000006125_ENST00000262325|hu_hu|FALSE|FALSE (ssRNA)
RNA: GGGAGUUCUACAGUCCGACGAUCCAUUUUGCCAUCUUCUACAAAAAGCACAUUGAGUGGGAUGAGGCAGCUGAAGUAGAAGACAUCGAUAUUGUUUUUCACAGCCACCUGGAGGUUAUUCAGAGGUUCCAUCUUCAUGACUGGCAACAGAGGAUUGAGCAUCA
B9: chr2:71279510:71279511:+_ENSMUSG00000027018_ENSMUST00000028408|mus_hu|motif|central (ssRNA)
RNA: GGGAGUUCUACAGUCCGACGAUCCAUAAACUCUAAACAGUAUUUUAAAAUAUACAAUCUCUCCAAAAGAAAAUAUUCAACGGAAGAUAGAUAACUUUUAGUAUAAGCAAAAUGUCACAAGAUUUUAAAAUUAAAGUCAUCAGACAACAGAGGAUUGAGCAUCA
B10: chr6:72791194:72791195:-_ENSMUSG00000055239_ENSMUST00000068697|mus_hu|FALSE|FALSE (ssRNA)
RNA: GGGAGUUCUACAGUCCGACGAUCUGUGACUUAUGUGCAGAUGUGUUUGAAAGACCACAGCUUGAAAACUGAUUUUUGAAACUUCUCAACAACCAAAUGAAAAAAAAUGAAAAUCCCUAAUGGGCUUGACUUCUAGUGUAACCACAACAGAGGAUUGAGCAUCA
B11: chr3:10015032:10015033:+_ENSMUSG00000027533_ENSMUST00000029046|mus_mus|mus_mus_mus_hu_True|18_78 (ssRNA)
RNA: GGGAGUUCUACAGUCCGACGAUCGUUUUUACCAUCACAAGUGAUGAUACAAUCUGGCUUGGCCAUGGCGCCCAUUUUUCGCAAAGCUAUUCCCACUCCUAGCUCCUUCAUGUAUUCCUCAAAGCCGUUGCUGUCCACCAGGCGCAACAGAGGAUUGAGCAUCA
B12: 64139538_64139772_2624_CDS_ENSG00000143952_ENST00000409558|human|control|control (ssRNA)
RNA: GGGAGUUCUACAGUCCGACGAUCAGCUAUGUGAUCAUGGUAGUCCUUAGUGAUAUGAUCAAAAUGCCUAAGCAUGCUAUAUUGCUUAGGUGGUAGUCGAGCUUCAAAAUGAGCCCGGAUCACAGGAAUGUAGUGCACAAUUAACAACAGAGGAUUGAGCAUCA
B13: chr8:96496865:96496866:-_ENSMUSG00000031751_ENSMUST00000053766|mus_mus|FALSE|FALSE (ssRNA)
RNA: GGGAGUUCUACAGUCCGACGAUCCAAGUCCAGUCAACACCAGAAGAGGCCAUGCCUAGAGUUAAAAUGUGCAAUGUUUCUAAGGGGAAGAGAAAUGUCACAAAGAAAGUAUUACAAAGGAUUAAAUUUGUCAGCUGUCCACACCAACAGAGGAUUGAGCAUCA
B14: chr8:95500983:95500984:-_ENSG00000164944_ENST00000437199|hu_hu|hu_hu_hu_mus_True|68_68 (ssRNA)
RNA: GGGAGUUCUACAGUCCGACGAUCAGAACACAUCUAUCGAGUAAAGGACCGUACAUGACGGCCUCUAACCACUGCCUCACUAACAAACUUUCCUCUCGAGCCUCCACUGCCGCUAUUUGUACUAGCCCAGGACGGUCCCAGGCCCAACAGAGGAUUGAGCAUCA

target: T1, UNK ZnF1-3 (human, UniProt Q9C0B0 31-174); assay: nsRBNS (natural sequence RNA bind-n-seq); RBNS binding buffer (assumed for nsRBNS): 25 mM Tris pH 7.5, 150 mM KCl, 3 mM MgCl2, 0.01% Triton X-100, 500 ug/ml BSA, 20 U/ml SUPERase-In, 4 C; UNK is unkempt and MSI1 is Musashi-1; names of the RNAs are library labels; protein concentration not given here; high values mean tight binding
T1 sequence: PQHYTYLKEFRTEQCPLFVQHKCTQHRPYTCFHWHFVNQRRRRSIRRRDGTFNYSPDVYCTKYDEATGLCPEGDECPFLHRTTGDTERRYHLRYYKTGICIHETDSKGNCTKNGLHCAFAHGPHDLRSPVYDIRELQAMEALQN

Row | Binder | binding signal
1 | B1 | 1.3 enrichment R
2 | B2 | 0.799 enrichment R
3 | B3 | 1.15 enrichment R
4 | B4 | 0.957 enrichment R
5 | B5 | 0.698 enrichment R
6 | B6 | 1.35 enrichment R
7 | B7 | 0.542 enrichment R
8 | B8 | 1.17 enrichment R
9 | B9 | 1.56 enrichment R
10 | B10 | 1.35 enrichment R
11 | B11 | 0.81 enrichment R
12 | B12 | 1.22 enrichment R
13 | B13 | 2.32 enrichment R
14 | B14 | 1.12 enrichment R
